The structures appear in SMILES notation. The campaign covered roughly 150,000 compounds. About 540 (0.36%) showed an effect of 50% or more. The list shows a part of the results.

The assay relates to Plasmodium falciparum. Description: Primary screen in NF54 nanoGlo assay, in single point, at 2uM, 72h; a lower Z score goes with more inhibition. It is filed as functional, Erythrocyte. Particulars: timepoint 72 hour.
With `CN(Cc1ccccc1)C(=O)CCN1C[C@H](C(=O)O)[C@@H](c2ccc(F)cc2)C1`, the % Inhibition (in general, the change of the read-out against control, counted positive when it falls) was -5% and the Z score was 0.63.
In the case of `c1ccc2c(N3CCNCC3)nsc2c1` [BENZISOTHIAZOLE-3-YL-PIPERAZINE], the “% Inhibition” value is given as 1% and the Z score is recorded as -0.08.
With `COC(=O)[C@@H](Cc1ccccc1)NC(=O)CN1CCCC1=O`, the “% Inhibition” value is -4% and the Z score stood at 0.33.
For `CN1CC[C@@H]2CN(C(=O)Cc3ccccn3)C[C@@H]21` the same measures were -18% and 2.11.
For the molecule `CCN1CCC2C(C1)OCCN2C(=O)c1cccnc1` (centres undefined), the “% Inhibition” value was -7% and the Z score worked out at 1.19.
For `CC(C)(C)c1ncc2c(n1)CC1CCC2N1C(=O)N[C@H]1COC[C@H]1n1ccnn1` (some centres undefined), in that order: -3% and 0.34.
For `Fc1cnc(N2C[C@@H]3C[C@H]2CN3Cc2ccccc2)nc1` the same measures were 6% and -0.72.
On to `N[C@@H](Cn1cccn1)c1ccc(Cl)cc1`, for which the “% Inhibition” value is on record as -13% and the Z score was 1.75.
As to `O=C(c1sc2cc(F)ccc2c1Cl)N1CCC2(CC1)OCCO2`, the “% Inhibition” value was -7% and the Z score was 1.17.
On to `Cc1nnc2ccc(N3CC[C@@]4(CCCN(C)C4)C3)nn12`, for which the “% Inhibition” value was -10% and the Z score is 2.02.
Take `CN1CCC2OCCN(c3ccc(C(F)(F)F)cn3)C2C1` (centres undefined): the “% Inhibition” value is given as -43% and the Z score was 5.02.
For the molecule `Cc1cc(N2C3CCC2c2ccccc23)nc(C)n1`, the “% Inhibition” value is recorded as -20% and the Z score is reported as 2.53.
Regarding `COc1cc2c(cc1OC)CN([C@H]1CCCN(C(=O)Cc3ccc4c(c3)OCO4)C1)CC2`, the “% Inhibition” value is on record as -2% and the Z score came out at 0.33.
In the case of `Cc1c(C(=O)N2CCC3(CC2)OCCO3)oc2ccccc12`, the “% Inhibition” value was -14% and the Z score is listed as 1.99.
Regarding `COc1ccccc1[C@@H]1CN(C(=O)c2[nH]cnc2C)[C@@H]2C3CCN(CC3)[C@@H]21`, the “% Inhibition” value amounted to 0% and the Z score was 0.1.
With `CN1[C@@H]2CC[C@H]1c1c(nc(N)c(C#N)c1-c1cccc(OCC(N)=O)c1)C2`, the “% Inhibition” value was -9% and the Z score was 1.87.
For `CN(C(=O)CN1CCCC1=O)c1ccccc1`, the “% Inhibition” value was -28% and the Z score stood at 3.25.
For `CCC#CCN1C[C@H]2c3ccc(OC)cc3OC[C@@]2(C(=O)O)C1`, the “% Inhibition” value is given as -2% and the Z score was 0.38.
Turning to `CCn1ccc(C(=O)N2C[C@@H](c3cccc(F)c3F)[C@@H]3[C@H]2C2CCN3CC2)n1`, the “% Inhibition” value was -2% and the Z score is on record as 0.35.
In the case of `COc1ccc(CC(=O)N2CCC3(CC2)c2nccn2-c2ccccc2CN3C)cc1`, the “% Inhibition” value is reported as 6% and the Z score is recorded as -0.8.
For `CC[C@H]1CCCCN1C(=O)CN1CCCC1=O`, the “% Inhibition” value is -4% and the Z score is given as 0.53.
Regarding `CN1C2CCC1CN(c1ncnc3c(F)cccc13)CC2` (centres undefined), the “% Inhibition” value is reported as 9% and the Z score was -1.33.
As to `Cc1ccc(Cl)cc1S(=O)(=O)N1Cc2cccnc2C1`, the “% Inhibition” value is reported as -15% and the Z score was 2.77.
Consider `CNS(=O)(=O)N1CCC[C@H]1c1cccnc1`, for which the “% Inhibition” value was -8% and the Z score is 1.
For `C[C@@H](Cc1nc2ccccc2s1)NCCc1ccsc1`, in that order: 0% and 0.03.
With `O=C(c1cccs1)N1CC(C(=O)N2CCC3(CC2)OCCO3)C1`, the “% Inhibition” value is on record as -5% and the Z score is 0.82.
For `CC(C)[C@@H]1N(CC2CC2)CC12CCOCC2` the same measures were 12% and -1.35.
For `CN1C[C@@H]2CN(c3ncnc4ccc(F)cc34)C[C@@H]2C1`, in that order: -8% and 0.66.
With `CC(C)Cc1csc(C2CN3CCCC3CO2)n1` (centres undefined), the “% Inhibition” value was found to be 7% and the Z score is -0.97.
For `CC(C)N(C)C(=O)Cc1ccc(S(=O)(=O)F)cc1`, in that order: -2% and 0.23.
Regarding `CCN(C1CCN(C)CC1)C1CN(C(=O)COc2ccc(F)cc2)C1`, the “% Inhibition” value is on record as -17% and the Z score was determined as 2.24.
In the case of `C[C@H]1CC[C@H](C(=O)N2C[C@H]3c4ccccc4OC[C@@]3(C(=O)O)C2)CC1`, the “% Inhibition” value is reported as -12% and the Z score is recorded as 1.6.
For `Cc1cc(F)cc(-c2c(C#N)c(N)nc3c2[C@@H]2CC[C@H](C3)N2C)c1`, in that order: 3% and -0.45.
On to `Cc1csc2c(N3CC4CCCN4CC3C)ncnc12` (centres undefined), for which the “% Inhibition” value is 2% and the Z score is -0.34.
As to `Cc1cc(Br)cn2c(CN3CCNCC3)cnc12`, the “% Inhibition” value was 2% and the Z score is on record as -0.29.
Consider `Cc1ocnc1C(=O)N1C[C@H](c2cc(F)cc(F)c2)[C@@H]2[C@H]1C1CCN2CC1`, for which the “% Inhibition” value is recorded as -3% and the Z score was 0.41.
With `O=C1N(c2ccccc2)C(=O)C2(Cc3ccc(Cl)cc3N3CCOC[C@H]32)C(=O)N1c1ccccc1`, the “% Inhibition” value is recorded as 7% and the Z score is reported as -0.91.
For `Cc1cc(C)n2ncc(CN3C[C@@H]4CC[C@H](C3)C(=O)N4)c2n1`, the “% Inhibition” value is given as -11% and the Z score is 1.38.
Take `Nc1nccc(N2C[C@H](c3cccc(F)c3F)[C@@H]3[C@H]2C2CCN3CC2)n1`: the “% Inhibition” value is listed as -10% and the Z score was 1.75.
For `O=C(NCc1cccnc1)C(Cl)(Cl)Cl`, the “% Inhibition” value is on record as -17% and the Z score is listed as 2.23.
Take `Cc1nc(C(C)C)cc(N2C[C@H]3COc4ccccc4C[C@@]3(C(=O)O)C2)n1`: the “% Inhibition” value is listed as -11% and the Z score stood at 1.63.
`CN1CCN2CCN(c3ccc(-c4ccccc4)nn3)C[C@H]2C1=O`: the “% Inhibition” value is listed as -9% and the Z score turned out to be 0.88.

The record behind these values is ChEMBL document CHEMBL4888484, “Replenishing the malaria drug discovery pipeline: Screening and hit evaluation of the MMV Hit Generation Library 1 (HGL1) against asexual blood stage Plasmodium falciparum ,using a nano luciferase reporter read-out” (2022).
